According to publication PMC4336329 (PLoS ONE, 2015):
Out of some 310,000 compounds screened, about 14,000 (4.5%) showed an effect of 50% or more. The effect is printed as a negative number. Some of the results follow.

target: human ether-à-go-go-related gene (hERG) potassium channel (human, UniProt Q12809); assay: primary screen, population patch clamp on CHO cells stably expressing hERG
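Further: peak tail current of the secondary pulse compared with the same well before compound.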

human ether-à-go-go-related gene (hERG) potassium channel, sequence (Q12809 whole entry, looked up): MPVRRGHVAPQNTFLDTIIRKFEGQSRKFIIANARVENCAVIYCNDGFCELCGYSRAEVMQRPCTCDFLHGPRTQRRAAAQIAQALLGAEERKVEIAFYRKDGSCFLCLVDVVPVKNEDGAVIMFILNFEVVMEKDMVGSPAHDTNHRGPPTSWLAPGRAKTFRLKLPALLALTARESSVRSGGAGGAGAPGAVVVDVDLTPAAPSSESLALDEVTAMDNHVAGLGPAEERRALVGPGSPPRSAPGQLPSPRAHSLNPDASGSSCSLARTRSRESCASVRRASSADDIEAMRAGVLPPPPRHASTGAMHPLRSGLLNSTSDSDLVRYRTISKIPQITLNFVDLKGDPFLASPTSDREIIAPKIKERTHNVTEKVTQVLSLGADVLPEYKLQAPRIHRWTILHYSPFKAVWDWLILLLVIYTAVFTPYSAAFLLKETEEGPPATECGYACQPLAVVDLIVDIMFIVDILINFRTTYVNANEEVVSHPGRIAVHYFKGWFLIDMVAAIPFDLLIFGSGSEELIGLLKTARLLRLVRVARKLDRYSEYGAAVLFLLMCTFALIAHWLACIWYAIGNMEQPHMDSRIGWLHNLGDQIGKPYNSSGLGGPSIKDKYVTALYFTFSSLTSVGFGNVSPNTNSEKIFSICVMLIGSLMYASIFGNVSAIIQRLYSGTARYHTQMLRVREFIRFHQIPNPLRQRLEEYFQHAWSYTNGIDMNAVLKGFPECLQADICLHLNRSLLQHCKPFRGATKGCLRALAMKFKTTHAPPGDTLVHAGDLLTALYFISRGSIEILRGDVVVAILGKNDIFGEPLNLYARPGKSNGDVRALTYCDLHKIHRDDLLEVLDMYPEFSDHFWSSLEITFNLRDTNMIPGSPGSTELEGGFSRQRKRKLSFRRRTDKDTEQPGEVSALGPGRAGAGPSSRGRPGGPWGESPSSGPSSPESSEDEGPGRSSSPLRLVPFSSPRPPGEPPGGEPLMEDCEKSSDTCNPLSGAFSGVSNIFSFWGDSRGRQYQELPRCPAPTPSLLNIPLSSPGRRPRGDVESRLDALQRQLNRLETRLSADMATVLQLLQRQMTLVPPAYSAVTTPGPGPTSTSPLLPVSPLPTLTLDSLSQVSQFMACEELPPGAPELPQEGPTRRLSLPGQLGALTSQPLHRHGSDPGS

Compound	hERG current change (%, negative = inhibition) at 10uM [%]
CC1=C(C#N)C(NC(=O)c2ccc(C)cc2)(C(F)(F)F)C(=O)N1 (stereo not drawn)	22.3
CCSc1ccccc1C(=O)NCc1ccc(OC)cc1	2.6
CCCCCCNCc1c(F)cccc1Cl	-6.27
O=C(O)c1ccc(N/N=C/c2cc3ccccc3nc2Cl)cc1	14.4
COc1ccc(C(C(=O)NC2CCCCC2)N(C(=O)c2sc(C)nc2C)c2ccccc2C)cc1 (stereo not drawn)	-18.1
Cc1cccc(C(=O)NNC(=O)CSc2nnc(C3CC3)n2C)c1	20.8
O=C(O)CCC(=O)N1CCN(c2ncccn2)CC1	18.4
CS(=O)(=O)N(Cc1ccccc1)c1ccc(C(=O)NCc2ccccc2)cc1	21.8
COc1ccc(C2=NOC(c3nnc(-c4ccccc4)o3)C2)cc1 (stereo not drawn)	-0.985
Cc1cc(NC(=O)COC(=O)C2CCN(S(=O)(=O)c3ccc(Cl)cc3)CC2)no1	9.58
Cc1ccc(S(=O)(=O)c2c(C)cc(C)[nH]c2=O)cc1	20.3
COc1ccc(CNC(=O)c2cnc3scc(C)n3c2=O)cc1	-18.3
COc1ccccc1NC(=S)N1CC(C)OC(C)C1 (stereo not drawn)	19.5
O=C(CSc1cccc[n+]1[O-])Nc1cc2c(cc1Cl)C(=O)c1ccccc1C2=O	1.62
COc1ccc(C2(CNC(C)=O)CCCC2)cc1OC	8.51
O=C(Nc1ccc(Cl)c(Cl)c1)Nc1cc(C(=O)NC2CC2)ccc1Cl	5.53
COc1ccc(N/N=C(/N=Nc2nc(C)cc(=O)[nH]2)c2ccccc2)cc1	-1.23
Cc1ccc(C(=O)C[n+]2ccccc2C)cc1[N+](=O)[O-].[Br-]	-1.36
O=C(CN1CCN(c2ccccc2)CC1)Nc1cccc(C(F)(F)F)c1	2
CC(Sc1nc(N)cc(=O)[nH]1)C(=O)NCC(=O)Nc1ccc(F)c(F)c1F (stereo not drawn)	-8.13
O=C(NCN1CCN(CCO)CC1)c1cnccn1	7.29
O=C1Nc2ccccc2Nc2ccccc21	14
COc1cccc(NC(=O)Cc2csc(NC(=O)Nc3ccccc3OC)n2)c1	18.2

Compound	hERG current change (%, negative = inhibition) at 10uM [%]
CCOC(=O)c1ccc(NC(=S)NC(=O)c2cncc(Br)c2)cc1	21.8
Cc1ccc2c(CC(=O)N3CCc4ccccc43)coc2c1	3.29
Cc1ccc(C)c(NC(=S)NNC(=O)c2csc(C)c2C)c1	1.72
CC(=O)c1ccc(NC(=O)Nc2ncn(Cc3cccc(C)c3)n2)cc1	0.723
CC(=O)c1ccc(-c2ccccc2OC(F)(F)F)o1	-10.7
CC(=O)Nc1ccc(NC(=O)c2ccc(-n3c(C)ccc3C)cc2)cc1	-20.2
CCON1C(=O)CN(C(=O)OC)C1c1ccc(Cl)cc1Cl (stereo not drawn)	5.34
CN(C)c1ccc(/C=N/NC(=O)CNC(=O)c2ccco2)cc1	17.9
Br.N=c1n(CCN2CCOCC2)c2ccccc2n1CC(=O)c1ccc(Cl)c(Cl)c1	-73.2
Nc1cccc(C(=O)O)c1	13.6
CC(=O)Nc1ccc(S(=O)(=O)N[C@@H](C)C(=O)Nc2ccc(N3CCOCC3)cc2)cc1	15.1
CC(C)(CO)Nc1nc(N2CCCC2)nc(N2CCCC2)n1	-13.8
Cc1ccc(NC(=O)CSc2nnc(-c3cccs3)o2)cc1S(=O)(=O)N1CCCCC1	-19
Cc1sc2nc(CN3CCCCC3)nc(Cl)c2c1C	-24.5
COc1ccc2c(c1)-c1c(ssc1=S)C(C)(C)N2S(=O)(=O)c1ccc(C)cc1	2.55
CCN(C(=O)COC(=O)c1ccccc1NCCO)c1cccc2ccccc12	1.48
C/C(=N/NC(=O)CSCc1ccc(Cl)cc1)c1cccc(NC(=O)c2ccccc2)c1	4.75
Cc1sc(-n2c(C)cc(/C=C3\SC(=S)NC3=O)c2C)c(C#N)c1C	8.41
COc1cc(CN(C(=O)c2ccco2)c2ccc(C)cc2)ccc1O	-12.1
COc1ccc(-c2[nH]ncc2N=Nc2cc(C)cc(C)c2)cc1	24.5
COCCNC(=O)Cn1c(=O)n(Cc2ccc(C(=O)NCCc3ccc(OC)c(OC)c3)cc2)c(=O)c2ccccc21	11.7
CC(=O)Nc1nnc(-c2ccc3c(c2)CCCC3)o1	-23.3
Cc1cccc(N2CCN(C(=O)C3CCN(S(=O)(=O)c4cnc[nH]4)CC3)CC2)c1C	4.44

Compound	hERG current change (%, negative = inhibition) at 10uM [%]
CC(=Nc1ccccc1)C1=C(O)COC1=O	-3.16
COc1ccc(C=O)cc1OC1C=CCCC1 (stereo not drawn)	11.5
Cc1nc(-c2ccccc2)sc1C1(C)CC(c2ccc(OC(F)(F)F)cc2)=NO1 (stereo not drawn)	4.29
O=C(O)CCn1ncc2ccccc2c1=O	-1.22
O=C(Nc1cccc(-c2cccc(Cl)c2)c1)C1CCN(C2CCC2)CC1	-73.7
CCC(=O)Nc1ccc(Br)cn1	31.9
CC1CCN(CC(=O)Nc2ccccc2C(=O)NC2CC2)CC1	-17.4
COc1cc(/C=N/NC(=O)c2cc(C)oc2C)cc(OC)c1OC	14.9
CCCCCCC(C)n1cc(C(C)=O)c(=O)n(C)c1=O (stereo not drawn)	-12.1
Cc1cccc(N=Nc2c(C)[nH]n(C(N)=S)c2=O)c1C	11.5
CCCCc1ccc(NC(=O)N[C@@H](C)C(=O)O)cc1	7.56
O=C(CCN1C(=O)/C(=C/c2ccc(F)cc2)SC1=S)Nc1cc([N+](=O)[O-])ccc1O	15
C=CCN(CC(=O)NCC1CCCO1)C(=O)CCC(=O)Nc1cc(C)on1 (stereo not drawn)	11.7
C=C(C)C(=O)OCC(O)COc1ccc(C(C)(C)c2ccc(OCC(O)COC(=O)C(=C)C)cc2)cc1 (stereo not drawn)	9.32
COc1ccccc1NS(=O)(=O)c1ccc(O)cc1	1.44
NS(=O)(=O)c1ccc(CCNC(=O)CSc2nc3ccccc3c3nc(CCN4CCCCC4)nn23)cc1	13.7
CCCc1cc(=O)[nH]c(SCC(=O)N2CCC(C)CC2)n1	16.2
Cc1ccc(S(=O)(=O)N2CCN(C(=O)COC(=O)CSc3cc(C)ccc3C)CC2)c(C)c1	-6.13
Cc1cc(-c2ccc(S(=O)(=O)N(C)c3ccc(C)c(C)c3)s2)on1	18.6
O=c1ccc(-c2ccccc2)n[nH]1	17.1
CC1CCCN(S(=O)(=O)c2ccc(N(C(=O)c3cnccn3)C(C(=O)NC3CCCCC3)c3cccs3)cc2)C1 (stereo not drawn)	-22.1
COC(=O)C1[C@H]2SC(C)(C)C(C(=O)OC)N2C(=O)N1Cc1nc2ccccc2s1 (stereo partly drawn)	-24.6
COC(=O)Nc1nc(-c2ccc(F)cc2)c(C)s1	14.5

Compound	hERG current change (%, negative = inhibition) at 10uM [%]
Cc1cc(C)c(C(=O)N(C)C2CCCN(Cc3ccccc3F)C2)o1 (stereo not drawn)	-0.652
COCCNc1nc(SC)nc2sc3c(c12)CCN(C)C3	-71.2
C=C1CCN(c2ccc(C(=O)NCc3ccc(OC)cc3)cc2[N+](=O)[O-])CC1	-7.55
COCCNC(=O)COCc1cc(-c2ccc3c(c2)OCO3)on1	11.6
COc1ccc2nc3oc(C(=O)N4CCN(c5ccccc5F)CC4)cc3cc2c1	9.44
CCCn1c(SCC(=O)N2c3ccccc3CCc3ccccc32)nc2c1c(=O)n(C)c(=O)n2C	17.5
CCN1N=C(C)C=C(c2ccccc2)n2c1nc1ccccc12.Cl	-7.58
CC(C)(C)C1=NN(c2ccc([N+](=O)[O-])cc2)C(c2ccccc2)C1 (stereo not drawn)	16.1
CCOC(=O)N1CCN(C(=O)c2ccc(OCC)cc2)CC1	-28.3
COc1ccc(N(CC(=O)N/N=C/c2ccc(OC)c(OC)c2)S(=O)(=O)c2ccccc2)cc1	3.61
O=C(Cn1cnc([N+](=O)[O-])c1)Nc1cc(Oc2ccc(Cl)cc2Cl)cc([N+](=O)[O-])c1	6.34
CC(=O)c1ccc(S(=O)(=O)NCCCC(=O)N(C)Cc2ccc3c(c2)OCO3)cc1	-30.3
COCCNC(=S)Nc1ccc2nc(N3CCOCC3)cc(C)c2c1	-0.507
Cc1ccc(-n2c(C)cc(/C=C3\SC(=O)NC3=O)c2C)cc1	0.188
CCCNC(=O)CCC(=O)Nc1ncc(-c2ccc(C)cc2)n1C	1.03
Cc1ccc(N(C(=O)Cc2cccs2)C2C=CS(=O)(=O)C2)cc1Cl (stereo not drawn)	-41.6
COc1cc(NC(=O)CCc2nnc3ccc(NCc4ccco4)nn23)cc(OC)c1	4.52
Cc1cccc(OC(=O)c2cncc(Br)c2)c1	7.83
NNC(=O)CNc1ccccc1Cl	13.9
CCn1nnc(NC(=O)c2ccco2)n1	20.6
COc1cc(CCC(=O)Nc2cc(Cl)ccc2N2CCN(C)CC2)cc(OC)c1OC	-10.2
